Reference: the supplement of paper PMC11417369
This is one part of the list.

These sequences were tested on PfAP2-HC AP2 domain (GST-tagged) (assay: gcPBM binding intensity (ln(normalized median fluorescence intensity)); higher = stronger DNA binding).
Method in brief: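 Probes on an Agilent 4 × 180k array were primer-extended, double-stranded and 36 bp long, taken from intergenic genomic regions, with negative controls added. GST-tagged P. falciparum DNA-binding domains from E. coli, about 25 μg on average, were applied to the array for 1 h in 1× PBS containing 1% milk, 0.2 mg/ml BSA, 0.5% salmon testes DNA and 0.03% Triton X-100. Binding intensity, obtained after Alexa488 anti-GST antibody detection and a 488 nm scan, is the highest Masliner-normalised natural-log median intensity across replicate spots of either probe orientation.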

Sequence	gcPBM binding intensity (ln)
TATATATATATGTGTACACAAAAAATATTATATTAT [CACACA_site5505]	9.76
ATTCTATTTTTAAGTACACACATATATATATATATA [CACACA_site3658]	9.78
ACATAATTATTATGCACACATATTTTTATGTATTTA [CACACA_site698]	10
ATACTTTATTAATATTGTACAAAATAAGAAAAAAAA [XGTACX_site310]	9.67
ACATAAAAATTATGCACACTTAATAAAGCGAAATGT [CACACA_site3183]	9.85
CACAACAGGGTTGAGGTGCGTAAAAATAGTAGAATA [GTGCAC_site9523]	9.59
TTTTGAAGTAATACATGTACTTAAATTACTAAAAAA [XGTACX_site1955]	9.47
ACTTTGCGTTAAAAGAGTACATAATATTTTTTTTTT [XGTACX_site7533]	9.46
TAATGGTGTTCATGTGGTACACTTTATAAATTGGCA [XGTACX_site729]	9.49
TTGAAAATTCTTAAGGCACACACATATATAATATAT [CACACA_site8088]	9.99
GCTTATTTTAATTCTTGTACTTATTTATATACAAAT [XGTACX_site2099]	9.81
AAACTAACTCTAACATGTACATATATATATATATAT [XGTACX_site6949]	9.74
ATCACAAAAAAGTTCATACACACAACCTATTTATAT [CACACA_site2888]	10
AAATCAAATTTTTAGAGTACTTAAGTTTTCTATATA [XGTACX_site7827]	9.36
TCCCCATATGTTTTGTGTACATATATATTTTTTTGT [XGTACX_site75]	10.1
TAATATATTAATATATGTACATATTTATATATCTAC [XGTACX_site7117]	9.81
ATAAAGTCTATATTATGTACATATAATATAAATATT [XGTACX_site6703]	9.57
GAACATTACGTAAATAAATAAATAAAAATAAATACA [XGTACX_negctrl_site25]	9.85
AAAAAACTTCACATATGTACTTAAAAAAAATTAAAA [XGTACX_site2368]	9.43
TATTGTCTTGTATATGCATGTAGACCAAATATGTAA [TGCATGCA_site9]	9.29
CAAAAAAAAATCTGTAGTACTTATTAATATTGCTGT [XGTACX_site4767]	9.58
ATATATGGAAAGAGTAGTACTATTATAGGGGTGTTA [XGTACX_site6785]	9.86

Sequence	gcPBM binding intensity (ln)
TGATTATTATAATTTAGTACATAATATTTTATATAA [XGTACX_site6125]	9.46
CAAGGAACCAGACACACACACATAAATGTATATATA [CACACA_site752]	10.2
AAAACAAAAGAATTCACACATATATATATATATATA [CACACA_site4777]	10.2
AAAATTAAACATACATCACACATGCATTATATTATG [CACACA_site5517]	9.8
AAAATTAACGAGTGCACACATATTTAGATAAAATAC [CACACA_site2936]	10.3
TTAAACGTACATAATACACACACATGTAGACATATA [CACACA_site8635]	10
AAATAAGAGCGTAGCACACACGCATTTTATAAATGG [CACACA_site4571]	10.3
TCATATAAGTTTAGTAGTACTAAAAGTTAGAGAGAA [XGTACX_site3430]	9.91
AATGAAGACTTTTTTACACACTTCATATCTTATAGA [CACACA_site7046]	9.7
AGCCACAATACGGAAACACACAAGTTATTTTATCAT [CACACA_site2724]	9.87
TTTTTATGAATTCTTTTGTTAATAATAATATGTTGT [TGCATGCA_negctrl_site198]	9.61
AAATTTTTTCCGATTTGTACTTATATTTCTTTATTA [XGTACX_site1762]	9.89
AATATTTTTAATTAATGTACATATTTATTATATAAA [XGTACX_site5112]	9.45
ATATATATATATGTACACATATATGTGTTTGTTTTT [GTGCAC_negctrl_site5]	10.2
CTATTACAAAGAAATTGTACATATATATATAAAAAC [XGTACX_site8800]	9.59
ATCTTTCAATAATTCACACATATATATATATATATA [CACACA_site4598]	9.8
ATAATATATATATTTTGTACACATGAAAAGGAGGAT [XGTACX_site5034]	9.9
TAAATAAATTTATGTACACACACAAATAAATACATA [CACACA_site5107]	10
AAAAAAAAGAAAAACACACACATATTTATTTATAAC [CACACA_site6600]	10.2
TATATATTAAATTATAGTACACATTATATATAATTA [XGTACX_site4841]	9.54
ATAATATATGTATGTATGCACTTTTATTATTTTTTT	9.9
TATATATATATATATAGTACACATATCACATAAATG [XGTACX_site6379]	9.77

Sequence	gcPBM binding intensity (ln)
TTATTTTTATTATAAATTATAAAATATAAATAAATA [GTGCAC_negctrl_site616]	9.18
TAAATCCGCACGCACACACACATATTAATAAAAAAA [CACACA_site7800]	10.5
ATATATTATATATATAGTACGTATATAAATTTAATT [XGTACX_site5041]	9.61
CATGAATTTTTTTAATGTACATTCACATCATAAAAA [XGTACX_site7475]	9.35
TCTTCTTAACCAACTATGAAAAGGAAAAATATAACA [GTGCAC_negctrl_site565]	9.3
GAAACTATGTAATGCACACCAAAATAAAATTATTAA [CACACA_site1904]	9.66
ATTATAAAAAAGAAACGTACATATTTATTGTTTTTT [XGTACX_site2161]	9.58
TATATAAATATACACCCACACACATATATATATATA [CACACA_site9247]	10.1
TATATATATAACATATGTACATATATTTATAAATAC [XGTACX_site5484]	9.81
AATAATTTAATACATACACACGTATATCTTTTTTTT [CACACA_site8632]	9.83
ATCGTAGTATAATATGAACACACACCCACCCACAAA [CACACA_site8616]	10.2
TATATTCCACTCATTGATTTTCTCTTCTCACAAAAA [CACACA_negctrl_site1016]	9.47
TATAAAAAAAAATGTGGTACATATTTCCATTTTCCA [XGTACX_site4571]	9.69
TATAATAATACTTATTGTACTATTAGTTTAATTCAT [XGTACX_site6638]	9.61
TACTATTATTATTGCACACTTATTATCCCTCGGATA [CACACA_site162]	9.73
AATATATATTAATACACACACACATATATATATATA [CACACA_site3786]	10.3
TGATCATAGAAACACACACACAAAAAAAAAAAAAAA [CACACA_site4008]	10.1
TTTTAATTAGTACAAACACACATATACAGACAAAAA [CACACA_site2563]	10.1
AGACGATAAATCATTCATTCATTTACCATCCAAAAA [CACACA_negctrl_site802]	9.41
TAATATAGAAAATGCATACACACTTTATATATATAT [CACACA_site911]	9.73
CTTTTTAATGAATACACACACACACCGATATATATA [CACACA_site5296]	10.7
AAATATTATTGACGATGTACTTCTATTCATAAGTAT [XGTACX_site3964]	9.61

Sequence	gcPBM binding intensity (ln)
GAATAATATGGACATACACACATATACATACCTATA [CACACA_site7075]	9.93
TAAAACTTATACAAATGTACAAATATATATATATAT [XGTACX_site4661]	9.53
AAAATTTTTTTTGGCGCACACTAATAATAAAATATA [CACACA_site470]	9.64
AAGAGAGAGAAATATGCACACATAAGGGAAATAAAT [CACACA_site8300]	9.92
TATATATGTATGTATGTACACACAAAAAATGGAATA [CACACA_site9235]	10.2
TTCTTTTTTATTTATACATGCAATAAAAAATTGATT [TGCATGCA_site730]	9.61
TTTTTTTAAAACAAAAAAAAAAAAAAAAAAAAAAAA [TGCATGCA_negctrl_site418]	8.22
TTGATAAAATCACTGGTGCATGTAGATATATAATAT	9.66
AATAAACATTATTTTCGTATTCCAATTCTTTTTTTT [XGTACX_negctrl_site374]	9.64
AAAAAAAAAAGAAAAAGTACATACATACATATATAT [XGTACX_site6405]	9.66
TTATTATTAGAAAAAAGTACACATATAAAATGTTAC [XGTACX_site6426]	9.55
GGATACATATGTAAAAGTACACATGAATATATACAT [XGTACX_site6469]	9.76
GTAAAATTAAAAATAACACACAAAAAAAAAAAAAAA [CACACA_site800]	9.85
AATAATATTGAAATGTGTACGTATTTATATTTTATG [XGTACX_site8252]	9.72
TTTTGTTATATTCAATATTTATATATTATAAATATA [CACACA_negctrl_site1705]	9.46
TTTTTCTTTTTTACAGTGCATAAATATATGTATTGT [GTGCAC_site9399]	9.6
TTGTGAATAACTAAGAAGAAAAAGATAAATATGTAT [TGCATGCA_negctrl_site388]	9.54
TATTCATGCATATACACACACATATATTTATATTTT [CACACA_site7786]	10.3
GAGCACCAAAATATATGTACATATGATAAATGTGAA [XGTACX_site1130]	9.63
ACATATATATAATATATATTTTTCGTGTGGTGTCAC [CACACA_negctrl_site543]	9.63
ATCATTGAAGTTAAAAATATAAAGTATTCAGAAGGG [XGTACX_negctrl_site560]	9.57
AATATATATATAGGATGTACACATAATTCAAATATA [XGTACX_site2755]	9.83
